# Test results taken from the supplement of paper PMC11417369.
# ± gives the standard deviation of the averaged measurements. The list shows a part of the results.
# Test system: PfAP2-EXP AP2 domain (GST-tagged)
# Assay: gcPBM binding intensity (ln(normalized median fluorescence intensity)); higher = stronger DNA binding
# Summary of the method: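 GST-fused DNA-binding domains of P. falciparum, expressed in E. coli, were applied at about 25 μg on average for 1 h to an Agilent 4 × 180k array of primer-extended double-stranded 36-bp intergenic genomic probes and negative controls. Binding intensity is the highest Masliner-normalised natural-log median intensity across replicate spots of either probe orientation, measured with Alexa488 anti-GST antibody and a 488 nm scan.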
row,Sequence,gcPBM binding intensity (ln)
1,TTTTTTTTTAAAACATAATAAAAAATAAAACAACCT [GTGCAC_negctrl_site92],8.77 ± 0.28
2,AAAAATAAAGGGTGTGCACACAAAAATATATATATA [CACACA_site1727],9.805 ± 0.078
3,ATAATATATTTAATCATACACACATTTATGTACCTA [CACACA_site1719],8.5 ± 0.47
4,ATATATATATATATATGTACATATATATTGTTGATC [XGTACX_site8893],10.1 ± 0.26
5,ATTTAATTCGTACATACACACGCACATATATATATA [CACACA_site8415],9.89 ± 0.24
6,ACATATTATTCAAGTGCACACTTTATATTTATGATT [CACACA_site3295],8.83 ± 0.26
7,AAAAAAAAACAGAAAACACACAAATTATCTTAGAAT [CACACA_site309],8.54 ± 0.59
8,TACAATAATGATTGTTGTACATTATTGATATTTAAA [XGTACX_site2940],8.26 ± 0.35
9,TTTAATTTTTAATCAGTGCAATATTATATAATATAT,8.445 ± 0.021
10,TCATTTTAATTAAAAGTGCAAAAAATAATATAACTA [GTGCAC_site9968],8.94 ± 0.17
11,ATTAATTCGTTTTGTACACACATAATGAATAATTTA [CACACA_site2235],8.44 ± 0.28
12,TATATGAAATATTATGCACACAATATATAATATGAT [CACACA_site936],8.61 ± 0.32
13,AATAATTCATCATATGCACACACAATACCAAAATGT [CACACA_site7945],8.81 ± 0.42
14,TTCTTTTTTCGACACACACACACAAGAAGATATATA [CACACA_site7456],8.82 ± 0.39
15,TTAATACATACATTCACACACACTAATTGTATATTT [CACACA_site9362],8.64 ± 0.38
16,ATATATATATATAATACACACTTATGAAATGTCTAA [CACACA_site5077],9.93 ± 0.2
17,TGTACAAATATGTTGAAAATAAAATTTCAATATATT [XGTACX_negctrl_site13],8.19 ± 0.28
18,ATACGAATAAATTTCGCATGCAGCATATATATCAAT [TGCATGCA_site612],9.58 ± 0.47
19,AACGAAAATAAGAAAAGTACAAAAAATACCAAATAA [XGTACX_site6171],8.93 ± 0.38
20,ATATATGCATATATATGTACATATATATATATATAT [XGTACX_site7403],9.93 ± 0.4
21,AATAAATAAAAAATTACACACATATATATAAATATA [CACACA_site3434],8.38 ± 0.33
22,ATATTTTTAGATTCAGAAAAAAGATTCAACTTACTC [CACACA_negctrl_site1357],8.25 ± 0.45

row,Sequence,gcPBM binding intensity (ln)
1,TAAATTATAAATTGCACACATATTTTTATATTTATA [CACACA_site2976],8.27 ± 0.17
2,TATTTCATATGAAGAAGTACTATTAATAATTTCCTT [XGTACX_site6587],8.3 ± 0.28
3,GAGCGTAATCTATTTGCACACTTATTTGTTCTTAAA [CACACA_site673],9.04 ± 0.37
4,GTGTATAATATAGGATGTACAATAAAACACCGATTG [XGTACX_site7429],8.92 ± 0.47
5,ATAAAAACATAAACAAATCAAAAAAAAAAAAAAAAA [CACACA_negctrl_site13],7.9 ± 0.62
6,TTGTTTATCAACAGCACACACAACAACAACAACAAC [CACACA_site458],8.88 ± 0.21
7,CATTAAAATATGAGATGTACACAATATCTATTATAT [XGTACX_site4979],8.55 ± 0.21
8,ATGGATTATACGTGCACACATATATACCAATAAATA [CACACA_site4524],9.11 ± 0.56
9,AAATAATGAAACAAAGTGCATAAAAATATACATATA [GTGCAC_site9467],8.805 ± 0.035
10,ATTTAAATATCTTCTTTTTTTTTTTTTTTTGAAATT [CACACA_negctrl_site1074],8.06 ± 0.42
11,AATATATAAACCGAACGTACATATTTTTTATACACC [XGTACX_site2121],8.56 ± 0.25
12,GTGTACAGACACAAAATATATACATATATATATATA [CACACA_negctrl_site1796],9.87 ± 0.54
13,TGTTATATGTTCAAATGTACAAATCATATACATGTT [XGTACX_site3192],8.45 ± 0.38
14,TATTTTCATAATAAAAAAAAATAATTTAAAAAATAT [CACACA_negctrl_site748],8.13 ± 0.4
15,ATTATTTTCTCATAGAGTACAAATGTTGTTGTTGTC [XGTACX_site1062],8.53 ± 0.42
16,AATGGCAAAATAGGCACACACACATATACATATATA [CACACA_site1058],8.84 ± 0.34
17,TGTGCACATAATTAGTGTACATTTTTTATTTAGACA [XGTACX_site317],8.6 ± 0.071
18,ATTAGAGAATCGTAACCCAAATGAACATACTTAAAT [GTGCAC_negctrl_site363],8.57 ± 0.42
19,AGATTTAAATATCATACACACTTTATATATAATACA [CACACA_site4688],8.33 ± 0.38
20,CTTATTGATTTAAAAAGTACATATATGTATATACAC [XGTACX_site4072],8.52 ± 0.26
21,AAAAAAAAAAAAAATACACACATATAAATATAAATA [CACACA_site6189],8.3 ± 0.49
22,AATTATATTTGAAATACACACATAAAAATCATATAG [CACACA_site3468],8.51 ± 0.39

row,Sequence,gcPBM binding intensity (ln)
1,TTATATAGGTCATTCATAAATACAGTTTTTAAAAAA [CACACA_negctrl_site1340],8.24 ± 0.36
2,AAAAAAAAAAGACACACACACACATAAATATAAATA [CACACA_site6215],8.72 ± 0.44
3,GATTATTTTATAAGTACACACATTTATATATAATAA [CACACA_site2573],8.41 ± 0.33
4,GCATAAATTATCATAACATAAATATAAAAATATAAT [GTGCAC_negctrl_site55],8.36 ± 0.37
5,AATTCATTATATATACGTACATATTTCTGTATAAAA [XGTACX_site6371],8.64 ± 0.38
6,ATTTATTTCACAAAAACATGCAGTTTGAAATTGCCA [TGCATGCA_site910],8.49 ± 0.33
7,TTTCACCATATAAACGTGCACACTACAAAAATATAT [CACACA_site2547],9.245 ± 0.007
8,GGAAAGACAGTTCACAGTACCCAGTAACTCTACGGA [XGTACX_site2009],8.32 ± 0.45
9,ATAATACAATTTATAACACACACACTATAATACATA [CACACA_site8338],8.73 ± 0.52
10,AAATAATAAATTATAACACACATATATATATATATA [CACACA_site4045],10 ± 0.47
11,TTCATGCTTATATGTGCACACACAAAAGAAAAGAAA [CACACA_site1656],8.95 ± 0.16
12,AAATCAAAAACGTTTACACACATTCTTATTTAAATA [CACACA_site790],8.74 ± 0.62
13,TACAGAAATTTATATATATATATATATATATATATA [XGTACX_negctrl_site209],9.95 ± 0.62
14,TACATATATTTTTTATGTACTTACTTGTGTGTTTAT [XGTACX_site5126],8.52 ± 0.38
15,TGAGACATGAATGCAAGTACAAAAAGGAGAACAAAA [XGTACX_site6183],9.14 ± 0.41
16,AAAAAAAAAAAAAAAAGTACACACTTTTGCCTACAT [XGTACX_site6583],8.74 ± 0.12
17,AAATTATATATAATAAATAATTTCTTTTTCTAAAAG [CACACA_negctrl_site8],7.76 ± 0.45
18,TTTTATAATTTCAAAGGATTCTTTAATATTATAAAT [CACACA_negctrl_site1812],7.97 ± 0.53
19,AATAATTGCTAAAGGTGTACAATACGTATATAAGAA [XGTACX_site4910],9.32 ± 0.44
20,TTATATTTTTTTTGTAGTACATTATAGAATACACAC [XGTACX_site969],8.68 ± 0.33
21,TTAATAACAAAATAAACACACATATATAAATACACA [CACACA_site6849],8.75 ± 0.38
22,TAAATTCTGTTTAAAAGTACAAATAATATTGTGCCT [XGTACX_site7805],8.14 ± 0.3

row,Sequence,gcPBM binding intensity (ln)
1,TTTATTAAAACAAAATGTACACACATATAATTTAAT [XGTACX_site1637],8.38 ± 0.32
2,AAATGTTGAAATGATACACACATATATATATATATA [CACACA_site2517],10.3 ± 0.32
3,TGAAAGTGTATTAAAGTGCATATTATTTTATCTACC [GTGCAC_site9969],8.59 ± 0.23
4,TTAATCTTCATAAAATGTACAGAAGATTGAATATTC [XGTACX_site6213],8.46 ± 0.54
5,ATATTTTTTTTCATTTGTACACATAAAATTATATAG [XGTACX_site8260],8.81 ± 0.36
6,AAAATACATATATATATATATAATATTGTTGTTAAA [GTGCAC_negctrl_site519],8.21 ± 0.39
7,ATAATATTTTATAATTGTACTTTTTATAAATATAAA [XGTACX_site1940],8.3 ± 0.22
8,CATATTTACATTAAGTGTACTTATGAATATATATAC [XGTACX_site7962],8.42 ± 0.4
9,TAAATAAATCCACATACACACACGACGCTAGTATAT [CACACA_site1060],8.32 ± 0.38
10,TTTTTATTTTTAGTAGTGCATTAATCATATGGTCAT [GTGCAC_site9879],8.69 ± 0.17
11,GATAGATAATATTTTAGTACATAAACAATTAAATAT [XGTACX_site4125],8.53 ± 0.32
12,AATATTTTATTTTTTCTCATTAAAAATTTTTTTTTT [CACACA_negctrl_site364],8.46 ± 0.45
13,CAAAAGAAGGTAAACACACACACACCCATACAAAAA [CACACA_site3765],8.77 ± 0.47
14,ATTATTCGTTTTAAATGTACTCATATAAACGATAAA [XGTACX_site7866],8.52 ± 0.3
15,TTATGAAAAAAATACTGTACACAATATGACGAAAGT [XGTACX_site2283],9.07 ± 0.39
16,TTTTAAATAAATCATGCATGCACATATAATTATATT [TGCATGCA_site151],9.94 ± 0.33
17,TATACGCATATTTTTACACACATATTTTTTCATATA [CACACA_site2546],8.83 ± 0.47
18,TATCTCATTTGGAATTGTACTAACAGATACTTGTTT [XGTACX_site2672],8.4 ± 0.44
19,ATTCAATAATTGTTTTTTTTCTTTTTGTTTTTGTTT [GTGCAC_negctrl_site563],8.44 ± 0.53
20,TATATATAATATATATGTACATATGTATAATATTTA [XGTACX_site4400],8.29 ± 0.3
21,AATATTACGTCTGGACGTACAAATCTTTTTCGTGTC [XGTACX_site6644],8.42 ± 0.17
22,AAATTATTGAAATACGCATGTGTTTTTTTTTTTTTT [TGCATGCA_site391],8.51 ± 0.18
